# The other results are listed elsewhere or left out. Values were computed here from the reads of four pooled replicates and scatter widely.
# Molecular target: T1, Pho4 (S. cerevisiae) (UniProt P07270)
# T1 sequence: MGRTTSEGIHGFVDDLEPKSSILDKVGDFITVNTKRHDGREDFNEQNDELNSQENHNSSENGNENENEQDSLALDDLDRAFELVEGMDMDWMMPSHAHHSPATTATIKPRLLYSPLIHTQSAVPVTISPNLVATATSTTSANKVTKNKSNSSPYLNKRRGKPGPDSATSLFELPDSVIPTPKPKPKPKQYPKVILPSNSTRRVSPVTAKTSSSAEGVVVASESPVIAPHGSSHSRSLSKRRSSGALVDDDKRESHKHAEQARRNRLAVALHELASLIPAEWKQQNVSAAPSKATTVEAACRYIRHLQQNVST
# Test: relative binding free energy (BET-seq); higher = weaker binding
# Settings: reference: library average
row,Sequence,relative binding free energy
1,GGATACACGTGAATTT,0.37 kcal/mol
2,TGGTCCACGTGGGGAT,-0.19 kcal/mol
3,ATTACCACGTGCGGGG,-0.08 kcal/mol
4,CCGGGCACGTGTGGTG,-0.02 kcal/mol
5,AGTCGCACGTGATGGT,0.11 kcal/mol
6,TCCTACACGTGTTGGA,0.38 kcal/mol
7,AAGGTCACGTGGAGGC,0.07 kcal/mol
8,GGGATCACGTGGCGGC,0.16 kcal/mol
9,ATGTTCACGTGTGCAT,0.34 kcal/mol
10,CTAGGCACGTGAGGGC,-0.03 kcal/mol
11,TGGGACACGTGTGCTA,-0.05 kcal/mol
12,TCGTTCACGTGAGGTC,0.51 kcal/mol
13,GGGTTCACGTGGACTT,0.32 kcal/mol
14,GTTGGCACGTGGCAAA,-0.07 kcal/mol
15,TAGGGCACGTGGGGAT,-0.08 kcal/mol
16,TGCGGCACGTGGTGGC,-0.14 kcal/mol
17,GTAGGCACGTGAGTTA,0.17 kcal/mol
18,TTTGGCACGTGTGCGA,-0.05 kcal/mol
19,GAGGGCACGTGCGTGC,-0.11 kcal/mol
20,GGTCTCACGTGGGTGA,0.21 kcal/mol
21,TTAATCACGTGGGAGG,0.01 kcal/mol
22,GGTGACACGTGTAATG,0.03 kcal/mol
23,GAGGGCACGTGGCAGT,-0.16 kcal/mol

row,Sequence,relative binding free energy
1,GGTGCCACGTGATGGG,0.12 kcal/mol
2,TGATTCACGTGTTGGG,0.27 kcal/mol
3,TTTTGCACGTGCTTTT,-0.01 kcal/mol
4,TTACGCACGTGGTGAG,-0.17 kcal/mol
5,TGATTCACGTGCAGGT,0.25 kcal/mol
6,GTTTTCACGTGCTCGG,0.27 kcal/mol
7,TCCTTCACGTGGGTGG,0.07 kcal/mol
8,ATGTTCACGTGGAATG,0.21 kcal/mol
9,TCAGGCACGTGTGCGG,-0.16 kcal/mol
10,TGAGGCACGTGCAGGC,-0.05 kcal/mol
11,CGGGTCACGTGGAGAG,0.08 kcal/mol
12,GGCGTCACGTGTGGGG,0.14 kcal/mol
13,ATGTGCACGTGGCATT,-0.23 kcal/mol
14,TGAGTCACGTGGGTTA,0.12 kcal/mol
15,AGTGCCACGTGTGAGG,0.14 kcal/mol
16,GGAGTCACGTGGTACG,0.12 kcal/mol
17,TGGGTCACGTGTGTTA,0.1 kcal/mol
18,TAATTCACGTGATAGG,0.25 kcal/mol
19,AGAGACACGTGAGTTT,0.35 kcal/mol
20,TACAGCACGTGTAGGG,-0.16 kcal/mol
21,AAATGCACGTGAGGGA,0.19 kcal/mol
22,GTTGTCACGTGGATGC,0.27 kcal/mol
23,CGCATCACGTGTGGGT,0.12 kcal/mol

row,Sequence,relative binding free energy
1,GTGAGCACGTGCAGGG,-0.19 kcal/mol
2,TTCTTCACGTGTTCGT,0.25 kcal/mol
3,AGCATCACGTGTAGTT,0.24 kcal/mol
4,TTTTACACGTGGCTAG,0.13 kcal/mol
5,TCTATCACGTGGTATT,-0.03 kcal/mol
6,AATCGCACGTGGAGGT,-0.01 kcal/mol
7,CAGGTCACGTGAGGCG,0.21 kcal/mol
8,GATTGCACGTGGATTA,0.1 kcal/mol
9,GTATGCACGTGGGGCA,-0.18 kcal/mol
10,AGCGTCACGTGTGGGC,0.08 kcal/mol
11,AGTATCACGTGTTAGG,0.34 kcal/mol
12,GTATTCACGTGGTTAG,0.22 kcal/mol
13,TAGGTCACGTGGTAAG,0.14 kcal/mol
14,CTTGTCACGTGTGGGT,0.16 kcal/mol
15,TTAGACACGTGGGAGT,-0.04 kcal/mol
16,GTGTGCACGTGAGCGT,0.22 kcal/mol
17,GGTACCACGTGTGATT,0.13 kcal/mol
18,CGTTTCACGTGTTAGG,0.38 kcal/mol
19,GTATTCACGTGGGGCC,0.16 kcal/mol
20,GGCGTCACGTGTGTTA,0.12 kcal/mol
21,TTGCTCACGTGAGATT,0.4 kcal/mol
22,GGGAGCACGTGAGATT,0.22 kcal/mol
23,TAAGGCACGTGTTTTC,-0.06 kcal/mol

row,Sequence,relative binding free energy
1,TTATTCACGTGGATGC,0.3 kcal/mol
2,GGGGGCACGTGGAAAT,0.02 kcal/mol
3,GGATACACGTGAATGT,0.3 kcal/mol
4,AGGAACACGTGTAGGA,0.08 kcal/mol
5,AGGTGCACGTGAGTTC,0.22 kcal/mol
6,CGGTACACGTGGTTGA,-0.08 kcal/mol
7,TTTTTCACGTGGGTTC,0.15 kcal/mol
8,TGGGACACGTGTTCAG,0.01 kcal/mol
9,GTAGTCACGTGGATTA,0.32 kcal/mol
10,TGTGGCACGTGATCCG,0.09 kcal/mol
11,GTTTACACGTGAATTG,0.45 kcal/mol
12,GTATTCACGTGCTGAG,0.24 kcal/mol
13,GTTTCCACGTGGTGGC,0.01 kcal/mol
14,GGTAGCACGTGGGGGG,-0.15 kcal/mol
15,TCGTACACGTGGAAGG,0.22 kcal/mol
16,TTTGGCACGTGAAGTT,0.12 kcal/mol
17,TAGTCCACGTGTTAGT,0.08 kcal/mol
18,TGTATCACGTGAATAT,0.32 kcal/mol
19,GCGTACACGTGGTAGA,0.1 kcal/mol
20,ATTTACACGTGTAGTA,0.07 kcal/mol
21,GGGTCCACGTGTAAAG,0.12 kcal/mol
22,TGTGGCACGTGGGCTT,-0.15 kcal/mol
23,ATAGTCACGTGGTTGT,0.09 kcal/mol

row,Sequence,relative binding free energy
1,TATGACACGTGGGATT,-0.05 kcal/mol
2,TTGTGCACGTGCTAGG,-0.07 kcal/mol
3,CTTGTCACGTGGTACG,0.15 kcal/mol
4,AGTGTCACGTGGGTGC,-0.11 kcal/mol
5,GAGGTCACGTGACGGT,0.13 kcal/mol
6,ATGTACACGTGAATGG,0.22 kcal/mol
7,ATTAGCACGTGTTAGC,-0.06 kcal/mol
8,TATTACACGTGTTGTC,-0.06 kcal/mol
9,AGTATCACGTGGAGTA,0.14 kcal/mol
10,GAGTTCACGTGTCTGG,0.41 kcal/mol
11,AGGGTCACGTGGTGCA,-0.05 kcal/mol
12,TTTGGCACGTGAGCTA,-0.08 kcal/mol
13,CTTGTCACGTGAAATT,0.45 kcal/mol
14,AAAGGCACGTGTGTTA,-0.1 kcal/mol
15,TATTACACGTGGTAAG,0.19 kcal/mol
16,TGGGACACGTGTGATT,0.13 kcal/mol
17,GAAAACACGTGTTGGA,0.11 kcal/mol
18,TATAACACGTGCATGG,-0.01 kcal/mol
19,GTATACACGTGTGATG,0.02 kcal/mol
20,TGTCACACGTGTGATT,-0.01 kcal/mol
21,ATATGCACGTGATTTA,0.04 kcal/mol
22,CAGGTCACGTGGTAGA,0.13 kcal/mol
23,TTAATCACGTGGTAGC,0.13 kcal/mol

# Source: the BET-seq Pho4 binding data (Le et al. 2018)
